Experimental data as given in PubChem BioAssay AID686978 (National Center for Advancing Translational Sciences (NCATS), 2013).
Out of some 420,000 compounds screened, about 64,000 (15%) were called active. The inconclusive results got no clear call from the source; some entries with a clear call stand among them for comparison. Calls come from the whole dose curve; as a rule, active = well fitted inhibition curve with a large enough effect; inconclusive = small, poorly fitted or top-dose-only effect; inactive = flat fitted curve, though single readings scatter. Potencies of inconclusive entries are left out as doubtful fits.

assay: qHTS for Inhibitors of human tyrosyl-DNA phosphodiesterase 1 (TDP1): qHTS in cells in absence of CPT; details: DT40 Tdp1-/- hTDP1 cells, no CPT, ATP luminescence, 48 h; activity change, negative = growth inhibition: at 46.2 µM (top of the series) unless noted; note: nearly all actives have a fitted effect of over 55% in size
Method in brief: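 Stably hTDP1-transfected Tdp1-null chicken DT40 cells were treated with library compounds minus camptothecin and grown for at least 48 hr at 37 °C, after which cellular ATP was quantified by luminescence.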
% is set by controls: 0 for no effect and ±100 for the full control effect; potency is the fitted concentration of half-maximal effect; tags give direction and shape of the fitted curve.

Row | Compound | Potency | activity change, negative = growth inhibition
1 | Cc1ccc(-c2cc(C(=O)N/N=C/c3c[nH]c4ccccc34)[nH]n2)cc1 | active: 2.59 µM | 
2 | COc1ccccc1N1CCN(C(=O)CN(Cc2ccccc2)S(C)(=O)=O)CC1 |  | inconclusive: -31.5% [inhibitor]
3 | CC(=O)N/C(=C\c1ccccc1)C(=O)OCC(=O)NC1CCS(=O)(=O)C1 (configuration not stated) | inconclusive [inhibitor, single point] | 
4 | C/C(=N\c1nc2ccccc2n1C)c1cc(Cl)ccc1O | inactive | 
5 | O=C(NC1CCCCC1)Oc1cc2oc(=O)sc2cc1Br | inconclusive [inhibitor, single point] | 
6 | O=C(Nc1ccc(NC(=O)C2CC2)cn1)c1ccccc1 | inactive | 
7 | CCc1nnc(NC(=O)CSc2nnc(C(C)NC(=O)c3ccccc3)n2C)s1 (configuration not stated) | inactive | 
8 | N#CC1=C(N)Oc2cc(O)c(Cl)cc2C1c1ccccc1F (configuration not stated) | inconclusive [inhibitor, single point] | 
9 | CN(C)c1ccc(NC(=O)CC(NCc2cccnc2)C(=O)O)cc1 (configuration not stated) | inactive | 
10 | CCOc1ccc(CCNC(=O)CN2CCN(Cc3ccccc3C)C2=O)cc1OCC | inconclusive [inhibitor, partial curve] | 
11 | CCOCCOC(=O)c1[nH]c2c(c1C)C(=O)CC(c1cccs1)C2 (configuration not stated) | active: 0.82 µM | 
12 | Cc1ccc2c(c1)nnn2C1CCN(CC(=O)NNC(=O)c2ccco2)CC1 | inactive | 
13 | CCN1C[C@@H]2[C@@H]3C(=O)N(Cc4ccccc4)C(=O)[C@@H]3[C@](Cc3ccccc3)(C(=O)OC)N2C1=NC1CCCCC1 | active: 16.4 µM | 
14 | COC(=O)[C@]12CCCCC=C1N(Cc1ccco1)C(=O)[C@H](CC(=O)NCc1ccc(OC)c(OC)c1)C2 | inconclusive [inhibitor, single point] | 
15 | CC(C)(C)SC(C(=O)N1CCOCC1)c1ccc(Br)cc1 (configuration not stated) | inconclusive [inhibitor, single point] | 
16 | N#Cc1cnn2ccc(-c3ccc4c(c3)CCC4)nc12 | inactive | 
17 | COc1cccc(/C=C/C(=C2/C(=O)N(c3ccccc3)N=C2C)c2ccc(C)cc2)c1OC | inconclusive [inhibitor, partial curve] | 
18 | C[C@@H]1CN([C@@H](C)CO)C(=O)c2cc(Br)cnc2O[C@H]1CN(C)C(=O)c1cccc(F)c1 | inactive | 
19 | O=c1oc(-c2cccc(Cl)c2)nc2c1cnn2-c1ccccc1 | inconclusive [inhibitor, single point] | 
20 | c1ccc2c(C3=NNC(=NC4CC4)SC3)c[nH]c2c1 | inconclusive [inhibitor, partial curve, poor fit] | 
21 | O=C(C1CCCN1S(=O)(=O)c1ccc(Cl)c(Cl)c1)N1CCCCC1 (configuration not stated) | active: 16.4 µM | 
22 | O=C(NCc1cccnc1)Nc1ccccc1C(F)(F)F | inactive | 
23 | COc1ccc(-c2cc3nc4ccccc4n3c(N)c2C#N)cc1 | inactive | 
24 | COc1ccccc1N1CCN(CC(=O)Nc2cc(F)ccc2C)CC1 | inconclusive [inhibitor, partial curve] | 

Row | Compound | Potency | activity change, negative = growth inhibition
25 | COc1ccccc1CNC(=O)Cn1ccc2cc(S(=O)(=O)N3CCCC3)ccc21 | inactive | 
26 | CCCCCCn1cc(CN2CC(N3CCN(Cc4ccccc4F)CC3)CS2(=O)=O)nn1 (configuration not stated) | inconclusive [inhibitor, partial curve] | 
27 | CCC(Sc1nc2nccnc2c(=O)n1Cc1ccc(Cl)cc1)C(=O)NC1CCCCC1 (configuration not stated) | inconclusive [inhibitor, single point] | 
28 | Cc1ccc(C(=O)NCC(=O)N2CCC(Cc3ccccc3)CC2)cc1 | inconclusive [inhibitor, single point] | 
29 | COCCCNC(=O)COc1ccc(S(=O)(=O)NCc2ccccc2)cc1Cl | inconclusive [inhibitor, partial curve, poor fit] | 
30 | CCNc1ncc2nc(-c3cn(C)c4ccccc34)c(=O)n(Cc3cccs3)c2n1 | inactive | 
31 | COc1cccc(CNc2sc3c(c2C(=O)Nc2ccc(OC)cc2OC)CCC3)c1 | active: 20.6 µM | 
32 | Cc1ccccc1Nc1nc(N)nc(COC(=O)CCS(=O)(=O)c2ccc(Cl)cc2)n1 | inconclusive [inhibitor, single point] | 
33 | Cc1c(OCC(=O)NCCN2CCOCC2)ccc2c1oc(=O)c1ccccc12 | inconclusive [inhibitor, single point] | 
34 | CCCN(CCC)C(=O)CSc1nc2n[nH]c(C)c2c(=N)n1-c1ccc(OCC)cc1 | inconclusive [inhibitor, single point] | 
35 | Cc1ccc(C(=O)N2CCN(c3ccc([N+](=O)[O-])cc3-n3cccc3)CC2)cc1 | active: 18.4 µM | 
36 | CCN1C(=O)N[C@@H](c2cccc(C(F)(F)F)c2)[C@@H](C(=O)OC)[C@H]1C | inactive | 
37 | COc1ccccc1-c1oc2ccccc2c1C#CCCCCO | inconclusive [inhibitor, partial curve] | 
38 | Cc1ccc(-n2nnnc2CSc2nnc(-c3ccc(O)cc3)o2)cc1 | inconclusive [inhibitor, single point] | 
39 | C=CCn1c(COc2ccccc2)nnc1SCC(=O)N/N=C/c1cc(Cl)ccc1O | inconclusive [inhibitor, single point] | 
40 | O=C(COC(=O)CNC(=O)c1cccc([N+](=O)[O-])c1)Nc1cccc(S(=O)(=O)N2CCCCC2)c1 | inconclusive [inhibitor, single point] | 
41 | Cn1cc(S(=O)(=O)N2CCN(c3cccc(C(F)(F)F)c3)CC2)c(=O)n(C)c1=O | inconclusive [inhibitor, single point] | 
42 | Cc1ccc(-c2cnc(C3CC3)o2)cc1S(=O)(=O)Nc1ccc(F)cc1Cl | active: 25.9 µM | 
43 | O=C(Nc1cccc2c1CCCC2)C1CCN(c2nnnn2-c2ccccc2)CC1 | active: 16.4 µM | 
44 | CCCCNc1c(-c2cccc(-c3cc(C(C)=O)cs3)c2)nc2cc(C)ccn12 | inconclusive [inhibitor, full curve, poor fit] | 
45 | COc1ccc(NC(=O)c2[nH]c(C)c(C(C)=O)c2C)cc1Cl | inconclusive [inhibitor, full curve] | 
46 | Cc1cc(C)c(C(=O)CSc2nc3ccccc3c(=O)[nH]2)cc1C | inconclusive [inhibitor, single point] | 
47 | CC1CCN(c2ccc3nnc(CCC(=O)N4CCN(c5ccc(F)cc5)CC4)n3n2)CC1 | inconclusive [inhibitor, single point] | 
48 | O=C1CS/C(=N/N=C2C3CC4CC(C3)CC2C4)N1 | inconclusive [inhibitor, single point] | 

Row | Compound | Potency | activity change, negative = growth inhibition
49 | CC(C)CCNC(=S)Nc1ccc(Br)cc1 | active: 16.4 µM | 
50 | CCOC(=O)C(/C=C(\C#N)C(=O)OCC)=C(/N)N1CCN(c2c(C)cccc2C)CC1 | inconclusive [inhibitor, full curve, poor fit] | 
51 | C(=N\n1cnnc1)/c1ccc2ncccc2c1 | inactive | 
52 | N#CCc1ccc(NC(=O)c2ccc(S(=O)(=O)N3CCCC3)cc2)cc1 | inactive | 
53 | COc1ccc(C(C)(O)c2nc(-c3cccc(C(F)(F)F)c3)cs2)cc1 (configuration not stated) | active: 18.4 µM | 
54 | Nn1cc(Br)c(=O)[nH]c1=O | inactive | 
55 | C[C@H]1COC(=O)CCCC/C=C\C[C@H](CC(=O)N(CCO)Cc2ccccc2)C(=O)N1 | inconclusive [inhibitor, single point] | 
56 | CCC1(C)Cc2nc3[nH]c(=S)n(-c4ccc(C)cc4)c(=O)c3cc2CO1 (configuration not stated) | inconclusive [inhibitor, single point] | 
57 | C/C(CS(=O)(=O)c1ccc(Cl)c(Cl)c1)=N/NC(N)=S | active: 5.8 µM | 
58 | Cc1cccc(N(C)S(=O)(=O)c2ccc3[nH]cc(C(=O)N4CCOCC4)c(=O)c3c2)c1 | inconclusive [inhibitor, full curve] | 
59 | CC(C)CNC(=O)C(=O)Nc1c2c(nn1-c1ccc(Cl)cc1)CSC2 | inactive | 
60 | O=C(O)CSc1c2c(nc3cc(C(=O)Nc4ccc(F)c(Cl)c4)ccc13)CCCC2 | inactive | 
61 | Cc1ncc([N+](=O)[O-])n1CCOC(=O)c1cc(Cl)cc(Cl)c1N | inconclusive [inhibitor, single point] | 
62 | S=C(NCCc1ccccc1)N1CCN(C(=S)NCCc2ccccc2)CC1 | inactive | 
63 | C=CCn1c2ccccc2c2nn(C)c(=S)nc21 | inactive | 
64 | COc1ccc(CCNC(=O)CC2(CC3=NS(=O)(=O)c4ccccc4N3)CCCC2)cc1OC | inconclusive [inhibitor, single point] | 
65 | O=C(O)c1ccc(N2C(=O)/C(=C/c3ccc(-c4ccc([N+](=O)[O-])cc4)o3)C=C2c2ccccc2)cc1 | inconclusive [inhibitor, single point] | 
66 | CCCN(CCC)CCCNC(=O)c1ccc2c(Cl)c3c(nc2c1)CCC3 | active: 18.4 µM | 
67 | COc1ccc(C(=O)NCCNc2nc3cc(C)cc(C)c3cc2C#N)c(OC)c1 | inconclusive [inhibitor, single point] | 
68 | Cc1cccc(N2CCN(c3ccc4cc(S(=O)(=O)N5CCC(C)CC5)ccc4n3)CC2C)c1 (configuration not stated) | inactive | 
69 | CCOC(=O)c1cnc2ccc(Cl)cc2c1N1CCN(C)CC1 | inactive | 
70 | CC(=O)c1ccc(NC(=O)CSc2nccn2C2CCCC2)cc1 | inconclusive [inhibitor, partial curve] | 
71 | O=C(NCC1CCCO1)C(=O)N/N=C/c1ccc(O)c(Cl)c1 (configuration not stated) | inactive | 
72 | C(CCCN1CCCCC1)CCN1CCCCC1 | inconclusive [inhibitor, single point] | 
